Test results reported in the supplement of paper PMC3334620.
In all, about 33,000 sequences were measured (“E-score (-0.5 to 0.5)”: median about -0.016, highest 2% from about 0.32 on). The list shows a part of the results.

molecular target: T1, Stp1 (UniProt B3LFK1); test: PBM E-score (8-mer binding enrichment) (E-score (-0.5 to 0.5)); higher = stronger / more preferred TF binding; most listed sequences are background and not binding sites; details: protein concentration: 200 nM; construct: GST-full length
T1 sequence: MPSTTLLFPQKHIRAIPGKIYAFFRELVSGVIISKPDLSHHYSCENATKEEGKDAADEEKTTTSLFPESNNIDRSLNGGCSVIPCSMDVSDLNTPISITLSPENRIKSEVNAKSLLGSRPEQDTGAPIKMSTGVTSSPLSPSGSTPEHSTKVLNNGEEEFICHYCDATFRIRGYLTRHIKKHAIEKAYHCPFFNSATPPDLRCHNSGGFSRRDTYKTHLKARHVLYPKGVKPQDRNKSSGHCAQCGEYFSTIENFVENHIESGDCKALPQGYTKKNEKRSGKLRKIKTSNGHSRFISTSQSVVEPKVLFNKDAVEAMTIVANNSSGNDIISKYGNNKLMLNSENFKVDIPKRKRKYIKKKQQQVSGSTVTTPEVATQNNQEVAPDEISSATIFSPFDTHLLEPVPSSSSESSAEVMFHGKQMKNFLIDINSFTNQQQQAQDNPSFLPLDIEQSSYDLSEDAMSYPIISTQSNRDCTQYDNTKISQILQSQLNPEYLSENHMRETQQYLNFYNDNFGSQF
Procedure, shortened: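 Bound GST-tagged yeast transcription factors, applied at about 100-200 nM to double-stranded universal all-10-mer Agilent arrays, were detected with fluorescent anti-GST. Scans were normalised with masliner. A modified Wilcoxon-Mann-Whitney statistic, the E-score, was assigned to each ungapped eight-base word pooled with its reverse complement by the Universal PBM Analysis Suite.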

Going from CACACCGA to CAGGTAAA, the “PBM E-score” value rises from -0.00909 to 0.0828.

First: CGTCGTTC
Second: CAGGGACC
The “PBM E-score” value of the first is higher: 0.107 for the first, -0.449 for the second.

Going from ACCAACCA to ACAGGGAT, the “PBM E-score” value falls from -0.0383 to -0.0529.

Going from ATCGAAGC to CATGCGAG, the “PBM E-score” value falls from 0.0408 to -0.00999.

Compared with AAGAAAGG, AGCTTCAG is lower in “PBM E-score” value: 0.125 for the first, -0.29 for the second.

Compared with AGAAAATG, GCTGAGCC is higher in “PBM E-score” value: 0.0252 for the first, 0.187 for the second.

First: CCGGGGCA
Second: AAAACCCT
The “PBM E-score” value of the first is higher: -0.151 for the first, -0.17 for the second.

Compared with CCATTCAC, CCTGGGTA is lower in “PBM E-score” value: -0.0255 for the first, -0.174 for the second.

First: CATGAGAA
Second: CTTCCGTC
The “PBM E-score” value of the first is higher: 0.0807 for the first, 0.0795 for the second.

First: AGCCCCAT
Second: CCATGGGA
The “PBM E-score” value of the first is higher: -0.163 for the first, -0.224 for the second.

Going from CCACCAAA to ACCGTATG, the “PBM E-score” value rises from 0.0371 to 0.182.

Compared with ACCAAGAT, AGTGAAGG is lower in “PBM E-score” value: -0.0294 for the first, -0.189 for the second.

Compared with ACTCGGCG, CTTGCTAA is lower in “PBM E-score” value: 0.223 for the first, -0.102 for the second.

Compared with CCATCTAG, CGTTTACA is higher in “PBM E-score” value: -0.186 for the first, 0.0891 for the second.

Compared with GATACTGA, GCTGCTAC is lower in “PBM E-score” value: 0.0896 for the first, -0.0577 for the second.

Compared with GGGCCGAC, CCCATTAC is higher in “PBM E-score” value: -0.204 for the first, -0.146 for the second.

First: CATTCAGG
Second: AATGTGGA
The “PBM E-score” value of the first is lower: -0.177 for the first, 0.0474 for the second.

First: GTGAAGCA
Second: GCCAAAGA
The “PBM E-score” value of the first is higher: -0.0566 for the first, -0.0782 for the second.

Going from ATATGATC to AGAGCGGC, the “PBM E-score” value rises from 0.143 to 0.307.

First: ATTGCCAA
Second: GACGGGTA
The “PBM E-score” value of the first is higher: -0.0869 for the first, -0.315 for the second.

Going from CATAGGGC to ACAGGCAA, the “PBM E-score” value falls from 0.152 to 0.0874.

Compared with ATGACTAA, CCTGGGGA is lower in “PBM E-score” value: -0.0612 for the first, -0.337 for the second.

Going from CGGTGTGA to GAATGCGC, the “PBM E-score” value rises from -0.0591 to 0.0126.

Compared with GTAGACAC, CAAGAGCG is higher in “PBM E-score” value: 0.0442 for the first, 0.0688 for the second.

Compared with ACCGATGC, GTATTAGA is higher in “PBM E-score” value: 0.0462 for the first, 0.108 for the second.

Going from GCGGAGCC to GGCTCACC, the “PBM E-score” value falls from 0.276 to -0.133.

Going from TGCAACAA to ATCGGGCA, the “PBM E-score” value falls from 0.0328 to -0.28.

Going from TCAAACCA to CACTCTAC, the “PBM E-score” value rises from -0.00071 to 0.121.

First: ACCAGCAG
Second: CGGTGGTC
The “PBM E-score” value of the first is lower: -0.215 for the first, -0.149 for the second.

First: ACATTCAT
Second: AGCCAGGA
The “PBM E-score” value of the first is lower: -0.0289 for the first, 0.00952 for the second.

First: AATTCAAG
Second: ACTTGGGA
The “PBM E-score” value of the first is higher: 0.0237 for the first, -0.208 for the second.

First: GCTCAAAA
Second: CTCTATCC
The “PBM E-score” value of the first is higher: 0.112 for the first, -0.0874 for the second.

Compared with GGTTCTAC, CTTGCTCC is higher in “PBM E-score” value: -0.148 for the first, -0.0209 for the second.

Going from GTCGACTA to CATATGTC, the “PBM E-score” value falls from 0.157 to -0.208.

Going from ATACCACC to CATGCTAG, the “PBM E-score” value falls from 0.00929 to -0.216.

First: ATAAGATG
Second: CTGATAGA
The “PBM E-score” value of the first is higher: 0.158 for the first, -0.0315 for the second.

Going from CATGCTGC to ATTTTCTC, the “PBM E-score” value rises from -0.143 to 0.0415.

Going from AGTAGCCA to AGATTCGA, the “PBM E-score” value rises from -0.155 to -0.0415.

First: AAAGACCT
Second: GATTGATA
The “PBM E-score” value of the first is lower: -0.0698 for the first, 0.025 for the second.

Going from GGCATGCC to CTCATGCA, the “PBM E-score” value falls from 0.255 to -0.0421.

Compared with TTATTAAA, AAGGTGCA is lower in “PBM E-score” value: 0.18 for the first, -0.0167 for the second.

First: CGTAGTCC
Second: AACGTCAA
The “PBM E-score” value of the first is lower: -0.155 for the first, 0.0741 for the second.

Compared with CTTGTGAA, AAACGCCA is higher in “PBM E-score” value: 0.104 for the first, 0.345 for the second.

Going from AATATGGT to ATAGGACC, the “PBM E-score” value falls from 0.081 to -0.261.

Compared with AACGGGGC, CTCAAGTC is lower in “PBM E-score” value: 0.186 for the first, -0.224 for the second.

First: CCCTTATA
Second: AAGGAAAG
The “PBM E-score” value of the first is lower: -0.15 for the first, -0.12 for the second.

First: GGTTCCTA
Second: ACAAGAGG
The “PBM E-score” value of the first is lower: -0.092 for the first, 0.103 for the second.

Compared with CAAGTCAA, ACAGTCCA is lower in “PBM E-score” value: -0.124 for the first, -0.17 for the second.

First: TAATGCTA
Second: GATGGGCA
The “PBM E-score” value of the first is higher: 0.144 for the first, 0.0916 for the second.

Compared with AAAATCTG, TAGTAGCA is lower in “PBM E-score” value: 0.0757 for the first, 0.0314 for the second.

Going from CGCTTCCC to ATCTGTGA, the “PBM E-score” value falls from -0.0155 to -0.043.

Going from CGTATGAG to AAAGCACC, the “PBM E-score” value falls from 0.024 to -0.0771.

First: ATCTCCAG
Second: GTGGCTCA
The “PBM E-score” value of the first is lower: -0.0955 for the first, -0.0195 for the second.

Going from CAACCATG to AGCTTGAG, the “PBM E-score” value falls from -0.0314 to -0.163.

First: CCGCGGCA
Second: CAGGCCTA
The “PBM E-score” value of the first is higher: 0.441 for the first, -0.153 for the second.

Going from CCTCAGAA to CACTGATA, the “PBM E-score” value rises from -0.0809 to 0.0376.

First: CCAGTCGC
Second: ACCTACGA
The “PBM E-score” value of the first is higher: -0.059 for the first, -0.126 for the second.

Going from AGTGCCGC to ATCGATGA, the “PBM E-score” value falls from 0.477 to 0.096.

Compared with CCTCTCCC, AGTTCCAG is higher in “PBM E-score” value: -0.253 for the first, -0.102 for the second.

First: AGAGTTCG
Second: GTGACGTA
The “PBM E-score” value of the first is higher: 0.132 for the first, -0.00784 for the second.

Compared with CGTAAGGA, CATCGATC is lower in “PBM E-score” value: -0.0941 for the first, -0.136 for the second.

First: CAGACGCA
Second: CGGCCTAA
The “PBM E-score” value of the first is lower: -0.0219 for the first, 0.0381 for the second.

First: CGGTAACG
Second: GGCGAGCC
The “PBM E-score” value of the first is lower: -0.139 for the first, -0.0109 for the second.

First: CTAGCGAA
Second: AGATGAAA
The “PBM E-score” value of the first is lower: -0.163 for the first, 0.195 for the second.

Compared with AGGTTAAG, CGCCCCGA is higher in “PBM E-score” value: -0.229 for the first, 0.0222 for the second.

Going from CCTGAAGG to GCACAAAC, the “PBM E-score” value rises from -0.12 to 0.195.

Going from CCCCAACA to GATGGGAA, the “PBM E-score” value rises from -0.224 to -0.169.

Compared with ACTCTAAC, GATGAATC is higher in “PBM E-score” value: -0.0909 for the first, 0.0331 for the second.

Going from CGTGTAGC to CCGAACAG, the “PBM E-score” value falls from -0.0261 to -0.13.

Going from ACAAAATA to AGTGAGTG, the “PBM E-score” value falls from -0.0287 to -0.143.

First: CGATTCCC
Second: AATTCTTG
The “PBM E-score” value of the first is lower: -0.155 for the first, 0.174 for the second.

Going from AGTCGCAC to CTCGCGGC, the “PBM E-score” value rises from -0.144 to 0.334.

First: AGCCGCCC
Second: CTATACTC
The “PBM E-score” value of the first is higher: 0.11 for the first, -0.222 for the second.

Compared with GCCAGTGA, CGCTGAAC is higher in “PBM E-score” value: -0.135 for the first, 0.105 for the second.

Compared with CGCCCAAA, CAACCCGC is lower in “PBM E-score” value: 0.0325 for the first, -0.064 for the second.

First: AACGACGC
Second: ATCCCTTC
The “PBM E-score” value of the first is higher: 0.0702 for the first, -0.127 for the second.

Compared with ACTCTCCA, TCACAGAA is higher in “PBM E-score” value: -0.0819 for the first, 0.0134 for the second.

Going from GACAGCCA to AATATATT, the “PBM E-score” value rises from -0.133 to 0.279.

First: CTTGAACC
Second: AACGCCTG
The “PBM E-score” value of the first is lower: -0.0677 for the first, 0.0127 for the second.

Compared with CACTTACG, CCATAAAA is lower in “PBM E-score” value: 0.0989 for the first, 0.0605 for the second.

Compared with ACAATATG, ACATCACC is lower in “PBM E-score” value: 0.204 for the first, -0.163 for the second.

Compared with AGGCAACG, GATTGGTA is higher in “PBM E-score” value: 0.0557 for the first, 0.0927 for the second.

Going from CCTGAAAG to CGGAAGTC, the “PBM E-score” value falls from 0.0268 to -0.0363.

Compared with AGCTTTGA, AAAGAGTA is higher in “PBM E-score” value: -0.174 for the first, 0.172 for the second.

First: ACCCGGCC
Second: CTTTGTGA
The “PBM E-score” value of the first is lower: -0.225 for the first, 0.00752 for the second.

Going from CCTTCTCA to GGCCCTAC, the “PBM E-score” value falls from -0.152 to -0.265.
